Source: the supplement of paper PMC11417369
± gives the standard deviation of the averaged measurements. The list shows a part of the results.

Each sequence was assayed on PfAP2-EXP AP2 domain (GST-tagged) (assay: gcPBM binding intensity (ln(normalized median fluorescence intensity)); higher = stronger DNA binding).
Outline: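 GST-fused DNA-binding domains of P. falciparum, expressed in E. coli, were applied at about 25 μg on average for 1 h to an Agilent 4 × 180k array of primer-extended double-stranded 36-bp intergenic genomic probes and negative controls. Binding intensity is the highest Masliner-normalised natural-log median intensity across replicate spots of either probe orientation, measured with Alexa488 anti-GST antibody and a 488 nm scan.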

Sequence	gcPBM binding intensity (ln)
TATAACATAATATAGACACACACATGTACTTATGCC [CACACA_site8547]	8.61 ± 0.35
ATTTTTTGGAAAAGAAGTACAATGGATTTATACGTT [XGTACX_site891]	8.51 ± 0.34
AATGTTTTTTTTTTTTTTTTTTTTTATTTATTGTTA [CACACA_negctrl_site505]	8.09 ± 0.51
ATCAAATAATAGCAAACACACAAAAAATAAAAAAAA [CACACA_site4146]	8.55 ± 0.55
TAACATATAATATTATGTACATATATACATATATAA [XGTACX_site7467]	8.43 ± 0.26
AAAAAATCACGACACACACACACACTAAAAAAAAAA [CACACA_site6792]	8.6 ± 0.49
AGAATACATATATGAACACACAGAGTTTTAAAAAAT [CACACA_site2735]	8.87 ± 0.42
TTTAAATAATCTAGGTGTACTTTCCTTTATAAATGT [XGTACX_site7859]	8.35 ± 0.42
TATTTCAATATATACCTTTGCTTTTTTAATATACTT [XGTACX_negctrl_site556]	8.56 ± 0.3
TCAATATAAATTAGTTGTACAGTTTTTTTTAATTAT [XGTACX_site6358]	8.4 ± 0.38
AATATAAATAAAAACACACACAATGGTACCTATATA [CACACA_site7688]	8.78 ± 0.51
GTAAAATATATAAAATGTACATATATTATATATATA [XGTACX_site489]	8.825 ± 0.064
TTTCTTTATTAAAATATTTTACATATATAATATACG [TGCATGCA_negctrl_site564]	8.64 ± 0.39
CATTTAAAAGATAAAACACACATACTAATAAAAAAC [CACACA_site5417]	8.96 ± 0.45
ATCATTTTTAAAGGAACACACAAAAAAAATTAAAAT [CACACA_site4878]	8.67 ± 0.68
ACATATATTATTATATGTACATATATTAATTATATA [XGTACX_site3400]	8.32 ± 0.35
ACTCTCTTATATTAAACACACATATATATCTGTATA [CACACA_site5489]	8.79 ± 0.41
CTTCTCTTTTTTATCATGCACTTTTTGTATAATAAT [GTGCAC_site9834]	9.13 ± 0.43
ATTTATATGTGGAGCAGTACGCACTCTCACAATTAA [XGTACX_site7252]	8.56 ± 0.28
TAAAAATTATATATCACACATATATGTCAGTATACA [CACACA_site4624]	8.43 ± 0.37
GATGTTCATCACTACACACACAAAGAAATATATATA [CACACA_site2684]	8.66 ± 0.35
TTGTATTTCCTTAGGAGTACACATAAATAAGTAAAT [XGTACX_site6677]	8.59 ± 0.31
AAAGAAAAAAAATATAAAAAATAAAAAATAAAACAA [CACACA_negctrl_site374]	8.48 ± 0.63

Sequence	gcPBM binding intensity (ln)
TAATATATGTATATATGTACATATAAATGTTATAGA [XGTACX_site2721]	8.59 ± 0.36
TTGGTATAAAATTATAGTACATAAGGTAAATATAAA [XGTACX_site4698]	8.56 ± 0.33
TATTTAAATTTTAAGTGTACATATTTATTTATATCT [XGTACX_site6545]	8.49 ± 0.28
AACTTAAAAAATAAATGTACATAAATATAAACATAT [XGTACX_site2987]	8.68 ± 0.4
AAAAAAAAAAAAATCACACATAATATAGAATATGTA [CACACA_site4993]	8.12 ± 0.45
ATATATATATATATAACACACGCAAAAAAATTAAAT [CACACA_site8395]	10.2 ± 0.26
AAAATGAATAAAAATACACACATATCTGTTATTCTC [CACACA_site5474]	8.17 ± 0.41
GAATATTAATTCATACGTACTTATATATAAGTATAT [XGTACX_site3707]	8.45 ± 0.31
TCACTATAATAATTTACACACATTTTAAGAAAATGT [CACACA_site3530]	8.33 ± 0.34
TATAAAAATGGGCACACACACACATATATATATTTA [CACACA_site1527]	8.59 ± 0.55
CCTTTTTATCTTTTTGTGCACAGACCTTTTTTAAAT	9.23 ± 0.23
ATGTAAGTTGTGCATTCACACACATATATATATATA [CACACA_site9086]	10.2 ± 0.2
ATATAATAATAAAGACGTACAAATGTATATATATAC [XGTACX_site3123]	8.98 ± 0.4
ATTTTTTTTTTTTTTTTTTTTTTATTCTTGTAATCT [CACACA_negctrl_site1039]	7.99 ± 0.59
AAAAAAAAAAAAAACATACACACAATAAAATAGGGG [CACACA_site2398]	8.86 ± 0.35
CATTTTTTATTTCCTTGTACGAATAAAATATATTTA [XGTACX_site6844]	8.65 ± 0.35
AATTTAATATAATGCACACATAAAACAAAAACAAAA [CACACA_site529]	8.97 ± 0.042
TACGTAAATGTGTGTGTGCACGTTATATATTAATAT [GTGCAC_site9976]	9.075 ± 0.049
TATTATCGTTCTCATACACACAAAATATACATACAC [CACACA_site2643]	8.9 ± 0.46
TTATAATAATATAATACATGCATATATATTTAAATA [TGCATGCA_site903]	8.6 ± 0.42
ATGGCCTCATTTGGGACACACAACATAAAATATATA [CACACA_site753]	8.65 ± 0.7
AATACACTAAACAAAAGTACAAAAATATTCTACAAA [XGTACX_site5162]	8.42 ± 0.48
ATAAACATATAAAAAGTGCATATTCATATATCTACT	8.41 ± 0.21

Sequence	gcPBM binding intensity (ln)
TGTTAATTATAAATTTGTACTTATTTTTACAAAATA [XGTACX_site6598]	8.38 ± 0.3
AAATATATTTTATGTACACACAAAATTAAGGGATAT [CACACA_site4881]	8.79 ± 0.33
ATATGACATAAAACATGTACATGTTCATAAATATAT [XGTACX_site1923]	8.85 ± 0.21
ATAAATATTAAAAGTACACACAGATACACTAATTAT [CACACA_site1808]	8.69 ± 0.4
TGAGTACACAATAATACATGCAATTCCTATGAATAT [TGCATGCA_site851]	8.88 ± 0.26
TACACTTTTTATGAAGTGCATGTATAGCTCTTAAAA [GTGCAC_site9595]	8.46 ± 0.35
ATTTACATAATAAAATGTACATTTATAAATATTATA [XGTACX_site1901]	8.27 ± 0.33
CATTATTCATTTTGGATGCACTGACAGAAAAATGGT	8.79 ± 0.33
ATGCTCAGGAAAACATGTACAAAATTATTTGTTATA [XGTACX_site4306]	8.31 ± 0.34
AGTTTTTATAAAAATAGTACATATTTATTAATCTGT [XGTACX_site5881]	8.21 ± 0.42
CCCACAGACGGACACACACACACACCGACACATATA [CACACA_site4356]	8.89 ± 0.3
TGCAGTCTGGAGAAACGTACACAGTATCTGGTAACC [XGTACX_site2543]	8.78 ± 0.29
TTTTGTGCTTAAAAAAGTACAAAATATAAAAAAAAT [XGTACX_site7876]	8.59 ± 0.4
TTCTATTTTAATATCTGTACATAATAAAGATCCATT [XGTACX_site1142]	8.5 ± 0.38
AAAATTGAACCTGACAAGGTATTTTATTATTTATTA [TGCATGCA_negctrl_site181]	7.96 ± 0.45
CATATATAAAAAAACACACACATATATATATATATA [CACACA_site1195]	10.2 ± 0.61
ACATAAATATAAACGTGTACATATATAAATATATAT [XGTACX_site7293]	8.43 ± 0.3
ATATATTTTAATTGTTGTACATATTAAATAAATAGG [XGTACX_site2311]	8.47 ± 0.49
ATTTTTTTTTTTTATAGTGGATCCACATTTGCCATT [CACACA_negctrl_site1284]	8.85 ± 0.55
TATATTTTATATATGGTGCAACTTTTATTTAAATAA	8.64 ± 0.042
TTACAAGTAAAAGGTACACACATTATAAATACAAAT [CACACA_site4752]	9.01 ± 0.52
AAAATTAAACTCACACCACACACAAAAAAAAAAAAA [CACACA_site8131]	8.47 ± 0.45
AAGAAAGACATTACGTGTACCAAACAACCTACCAAC [XGTACX_site4219]	9.03 ± 0.62

Sequence	gcPBM binding intensity (ln)
TGTTTTATCTTATATGCACACGATAAAAAAAAAAAA [CACACA_site2674]	8.63 ± 0.18
ATGTATATGTCTATATGTACTTATATTTTATTTTTT [XGTACX_site5902]	8.3 ± 0.28
AAAATAAATAAATACACACACACGAATATTTATATA [CACACA_site6892]	8.63 ± 0.54
ATTATTTCAATTTTTTTTGTTTTTAAAAAAAAAAAT [CACACA_negctrl_site1387]	8.31 ± 0.42
AAAAAAAAAAAAAAAAGTACACATCATTTTATGAAA [XGTACX_site1402]	8.59 ± 0.13
ATTATAAAAATATCGTGTACATATTTTTTAAAATAA [XGTACX_site5072]	8.23 ± 0.11
GAAAACAAAATGGTAACACACAAATGTAAATAGTAT [CACACA_site2113]	8.63 ± 0.27
AAAAAAAAAAAAAAAAGTACTCTATAAGTAACATTT [XGTACX_site6973]	8.455 ± 0.007
ATTTTTTTGTTATTGTTGAAAAGATGGTTCTTTTTT [CACACA_negctrl_site1346]	8.59 ± 0.53
AATTTCTTATTTTGTACACACAATAAATATTCACAT [CACACA_site1612]	8.72 ± 0.33
ATGAACATATTTTTTTGTACTTATGAAAATATGTTA [XGTACX_site5996]	8.51 ± 0.38
AAGTTAGGATAGATCCAATAATTTTTAGTTTCTCTT [GTGCAC_negctrl_site272]	8.09 ± 0.48
TAGTAGTTATCATTAACATGCAATAATATTATTTAA [TGCATGCA_site178]	8.38 ± 0.3
ATATAATTATAAAATAAACACACATATATATTTATA [CACACA_site8039]	8.19 ± 0.49
TAATGTTACACAAACTTTTCATTCTTTTTAATAAAT [TGCATGCA_negctrl_site331]	8.3 ± 0.33
ATATATATATATATATGTACATAGAGAAGTATCTTT [XGTACX_site4737]	10.4 ± 0.17
TTATTTATTTATAATTGTACATTGCAAATGAATTTA [XGTACX_site4083]	8.22 ± 0.3
AACATTTTAAATTATACACACATTTTGAATATATAT [CACACA_site3470]	8.46 ± 0.4
TGTTGTTGTAATTATTGTACGTTATGCGATTATTAT [XGTACX_site7005]	8.53 ± 0.17
TATACACCCAGACACACACACACACCCAAAAAAAAA [CACACA_site497]	8.44 ± 0.46
